The results in this text go back to ChEMBL document CHEMBL5308541, “MAIP: An Open-Source Tool to Enrich High-Throughput Screening Output and Identify Novel, Druglike Molecules with Antimalarial Activity” (ACS Med Chem Lett, 2023).

The campaign covered roughly 150,000 compounds. About 540 (0.36%) showed an effect of 50% or more. Some of the results follow.

The % Inhibition is the change of the read-out against control, counted positive when it falls.

This assay relates to Plasmodium falciparum. Nature of the assay: Primary screen in NF54 nanoGlo assay, in single point, at 2uM, 72h; a lower Z score goes with more inhibition. The assay is classed as functional, Erythrocyte. Particulars: timepoint 72 hour.
In the case of `FC(F)(F)c1ccc([C@H](CNc2cc(N3CCOCC3)ncn2)N2CCOCC2)cc1`, the “% Inhibition” value worked out at 7% and the Z score was -1.23.
In the case of `CC(=O)N1CCO[C@H](C(=O)Nc2cnccc2N2CCN(C)CC2)C1`, the “% Inhibition” value was -7% and the Z score stood at 1.25.
Taken in the same sequence, the figures for `Cc1c(C(=O)N2CCN(CC(C)C)C(=O)[C@@H]2C)n(C)c2c(C)cccc12` were 4% and -0.81.
On the same counts, the results for `O=C(NCCN1CC[C@H](O)C1)c1cc(-c2ccc(OC(F)(F)F)cc2)[nH]n1` are 1% and -0.2.
In the case of `Cc1ccc(CNC(=O)NC(c2ccc(F)cc2)C2CCCO2)cn1` (stereo not given), the “% Inhibition” value was -5% and the Z score is on record as 0.83.
Taken in the same sequence, the figures for `Cc1ccc(-c2nc(CC[C@H](C)N3CCCC3)n(CC(=O)O)n2)o1` were 0% and -0.09.
On the same counts, the results for `COc1cc(CNCCCN2CCCC2=O)ccc1OC[C@@H](O)CN(C)C1CCCCC1` are -2% and 0.37.
Taken in the same sequence, the figures for `CCCc1nc(N2CC[C@@]3(CCCN(C)C3=O)C2)no1` were 2% and -0.43.
Consider `CN1CCN(C[C@H]2CCCN(CC(C)(C)N3CCOCC3)C2)CC1`, for which the “% Inhibition” value is -20% and the Z score is 3.47.
Turning to `COc1ccc2occ(C(=O)N(C[C@H](C)C#N)C3CC3)c2c1`, the “% Inhibition” value came to 1% and the Z score is given as -0.09.
Taken in the same sequence, the figures for `COCCN1CCN(CC(O)CN2CCc3ccccc3C2)CC1C` (stereo not given) were -1% and 0.15.
Regarding `CCN(C(=O)c1cc2ccc(OC)cc2[nH]1)C1CCN(C(C)c2ccccc2)C1` (stereo not given), the “% Inhibition” value came out at 6% and the Z score is reported as -0.98.
Taken in the same sequence, the figures for `Cc1cnccc1NCCNC(=O)c1nc(-c2ccccc2)[nH]c1C` were 12% and -2.67.
Taken in the same sequence, the figures for `O=C(c1cc(O)c2cccc(F)c2n1)N1CCC(N2CCN(CCO)CC2)CC1` were -1% and 0.15.
On the same counts, the results for `CCCC(=O)c1cn(CC(=O)N2C[C@@H]3CCCN3C(=O)[C@@H]2C)c2ccccc12` are 0% and 0.
Regarding `Cc1cnn([C@H]2CCCNC2)c1C(=O)NC1CCC(N2CCCCC2)CC1` (stereo not given in full), the “% Inhibition” value is -5% and the Z score amounted to 0.81.
Taken in the same sequence, the figures for `CN1CCN(c2ccc(CNC(=O)C3CCN(c4nccnc4Oc4ccccc4)CC3)cc2)CC1` were -4% and 0.62.
Taken in the same sequence, the figures for `CN1CCC(N2CCC(NCc3cccc4nsnc34)CC2)CC1` were 14% and -2.08.
On the same counts, the results for `Cc1cc(NCC(=O)NC(C)C)c2cc(OC(F)(F)F)ccc2n1` are -11% and 1.9.
On to `Cn1cccc1C(=O)N1CCC(CN(CCN2CCCCC2)C2CCOCC2)CC1`, for which the “% Inhibition” value is -5% and the Z score is 0.79.
Taken in the same sequence, the figures for `COc1ccnc(NCCCc2nc(-c3ccncc3)cs2)n1` were 69% and -13.68.
Taken in the same sequence, the figures for `Cc1cccc(Cl)c1S(=O)(=O)NC[C@@H](C(C)C)N1CCCC1` were -2% and 0.33.
On the same counts, the results for `COc1ccc(F)c2[nH]c(C(=O)NCCCCN3CCCC[C@@H]3C)cc12` are -11% and 2.28.
In the case of `c1ccc(C2COCC3CN(Cc4ccc5[nH]ccc5c4)CCN32)cc1` (stereo not given), the “% Inhibition” value is recorded as -2% and the Z score is listed as 0.53.
Taken in the same sequence, the figures for `NC(=O)[C@H]1CCCN(C2CCN(c3cccc(-c4cc[nH]n4)c3)CC2)C1` were -9% and 1.58.
For the molecule `CC(=O)N1CC2CN(c3ncnc4[nH]ccc34)CC2(CCc2ccccc2)C1` (stereo not given), the “% Inhibition” value is listed as -4% and the Z score amounted to 0.65.
Taken in the same sequence, the figures for `O=C(Cc1ccc(F)cc1F)N1CCC(Oc2cnsn2)CC1` were -7% and 1.48.
Regarding `COc1ccc2c(c1)c(CN1CCC(CCc3noc(C4CC4)n3)CC1)cn2C`, the “% Inhibition” value is reported as -11% and the Z score is listed as 1.89.
Taken in the same sequence, the figures for `Cc1occc1-c1cc(NC(=O)N2CC[C@H](CN3CCCC3)C2)no1` were 4% and -0.71.
Taken in the same sequence, the figures for `Cc1cc(Nc2ccc(F)c(F)c2)n2nc(-c3ccccc3)c(C)c2n1` were -6% and 0.98.
On the same counts, the results for `N#CC1(c2nc(-c3sc4ccccc4c3Cl)no2)CCOCC1` are 14% and -2.78.
Consider `COC(=O)c1cn(CCNc2ccnc3cc(Cl)ccc23)cc2c(O)nnc1-2`, for which the “% Inhibition” value was determined as 97% and the Z score is -19.19.
Taken in the same sequence, the figures for `CCOc1ccc2nc(CN(CC)CC3CCN(C4CCN(C)CC4)CC3)ccc2c1` were 80% and -13.89.
On the same counts, the results for `Cc1cc(S(=O)(=O)N2CCC[C@H](c3nc(C)c(C)[nH]3)C2)c(C)o1` are -11% and 1.95.
For `Cc1nnc(NS(=O)(=O)c2ccc3c(c2)CCCC3=O)o1`, the “% Inhibition” value was -1% and the Z score came to 0.25.
Taken in the same sequence, the figures for `Cn1cc(-c2ccccc2CNc2cc(NCC3CC3)ncn2)cn1` were -6% and 1.23.
On the same counts, the results for `CC(NC(=O)CN1CCCC(CN2CCCCC2C)C1)C(=O)N1CCCCC1` (stereo not given) are 7% and -0.99.
Taken in the same sequence, the figures for `O=C(c1cccc(-c2ncc[nH]2)c1)N1CCN(CCN2CCOCC2)CC1` were -13% and 2.48.
`O=C(Nc1ccc(Oc2ccccc2)nc1)C1CCN(Cc2cccc3cnccc23)CC1`: the “% Inhibition” value was -6% and the Z score is given as 1.17.
In the case of `Cc1cc(=O)[nH]c(-n2nc(C)cc2NC(=O)[C@H](C)n2nc3c(cc2=O)CCC3)n1`, the “% Inhibition” value is -7% and the Z score stood at 1.4.
